Measured values from the RNAGym collection of RNA variant scans (doi:10.1093/nar/gkz1192).
The source gives no read counts; variants with many changes may rest on few reads.

B1: CPEB3 Ribozyme (parent)
chain: UAACAGGGGGCCACAGCAGAAGCGUUCACGUCGCAGCCCCUGUCAGAUUCUGGUGAAUCUGCGAAUUCUGCUGUAUAUCUC

Variants of: B1
Assay: self-cleavage, relative activity (ratio to wild type); higher = more cleavage; in vitro, sequencing
Method in brief: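 Libraries of CPEB3 self-cleaving ribozyme mutants came from rounds of error-prone PCR and carried barcodes, which DNA sequencing matched to variants. In vitro transcription used T7 RNA polymerase at 37°C for 5 hours, with a further 15 min in DNase I before EDTA stopped the reaction; the ribozymes cleaved during both steps. The RNA was reverse transcribed with template switching and sequenced on Illumina. Relative activity is the cleaved/total read fraction of a variant divided by that of the unmutated ribozyme, averaged over three batches with at least 5 reads.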
Variant A18U U25C U60C U78C has a self-cleavage of 0.24.
A18U A28G U31A U66C U72C gave a self-cleavage of 0.06.
With A18G G19A G22A U72A the self-cleavage was 0.18.
Work on A18G A21G U26A U41A U74C yielded a self-cleavage of 0.04.
A18U C29U A64G gave a self-cleavage of 0.27.
With A18U A28C U31A U78C the self-cleavage was 0.04.
With A18G U48A U54C A75G the self-cleavage was 0.09.
Variant A18U A35G U41A has a self-cleavage of 0.23.
A18G G55A U72G U80A gave a self-cleavage of 0.59.
Variant A18G A57G A64G U80C has a self-cleavage of 0.61.
For A18U A57G U66A U69A, the self-cleavage was 0.32.
For A18G A35U U51C A65U A75G, the self-cleavage was 0.08.
For A18U A20U A56U U58C U67G U78C, the self-cleavage was 0.07.
A18G A45C G46C gave a self-cleavage of 0.31.
Variant A18G U31C A57G U58C U72A has a self-cleavage of 0.09.
Work on A18G C29A A45U U58C C62A yielded a self-cleavage of 0.47.
In the case of A18U A28C U43A G63U A77G, the self-cleavage is reported as 0.13.
A18U A28G A45C gave a self-cleavage of 0.15.
A18G A35G A57G U76G gave a self-cleavage of 0.41.
For A18G U41A U76C, the self-cleavage was 0.25.
With A18G U25C U78G the self-cleavage was 0.07.
In the case of A18U A28G U66C A75G U76C, the self-cleavage is reported as 0.11.
Work on A18G C37A U51A A65G U67C yielded a self-cleavage of 0.05.
A18G U43C U72C showed a self-cleavage of 0.21.
With A18G G24U A45U the self-cleavage was 0.43.
A18G G22U U41A gave a self-cleavage of 0.19.
With A18G A28G A56G U69C A77G the self-cleavage was 0.43.
For A18G U26G U69C, the self-cleavage was 0.24.
In the case of A18G C23U C32U U51A, the self-cleavage is reported as 0.23.
For A18G U25C U43C A56G U78C U80A, the self-cleavage was 0.15.
Variant A18G G33C A56G U76C has a self-cleavage of 0.06.
A18U U25C U67C showed a self-cleavage of 0.14.
With A18G U26A U58C U60C U67A U72A the self-cleavage was 0.1.
With A18U C38U U60A G73A U80G the self-cleavage was 0.07.
A18U G24C U49C gave a self-cleavage of 0.16.
In the case of A18G U43C A64G U69C, the self-cleavage is reported as 0.81.
For A18G U41A U48A, the self-cleavage was 0.22.
Variant A18U A21G G52A U72C has a self-cleavage of 0.51.
In the case of A18G A47G U51C, the self-cleavage is reported as 0.5.
With A18U A28G A45G U67A the self-cleavage was 0.26.
A18G U41A U49C gave a self-cleavage of 0.09.
Work on A18G U49C U60C U72A yielded a self-cleavage of 0.15.
For A18G U41A U60C G63A, the self-cleavage was 0.06.
A18G U26A A57G gave a self-cleavage of 0.42.
Work on A18G A35U A64U C71G yielded a self-cleavage of 0.06.
A18U A20U U26C A35G U60C C81A gave a self-cleavage of 0.04.
With A18U A35G C37A the self-cleavage was 0.38.
Work on A18G A65G A77U U80A yielded a self-cleavage of 0.35.
Work on A18G A20U C40A U80A yielded a self-cleavage of 0.09.
A18G A28U A64G gave a self-cleavage of 0.16.
For A18G A35G A45C U48C A64G U69C A75G, the self-cleavage was 0.
Work on A18G A28G U41C U43C yielded a self-cleavage of 0.51.
Variant A18G C37U U66C has a self-cleavage of 0.16.
Variant A18U A20U A65G U69A U72G U74A has a self-cleavage of 0.07.
A18U G33A A35U U60C showed a self-cleavage of 0.08.
A18G G19U G36C U54C U66C U78C showed a self-cleavage of 0.1.
Variant A18U A21G U25C A64G A65U has a self-cleavage of 0.05.
For A18G A56G G73U U80C, the self-cleavage was 0.86.
Work on A18U A64G U66A U67C yielded a self-cleavage of 0.2.
Work on A18U A28G U58A U80A yielded a self-cleavage of 0.07.
Variant A18G A20U A45U G46A U49C A64U has a self-cleavage of 0.09.
A18U A35G U41C A45C U58A U76C gave a self-cleavage of 0.07.
A18G U26C U41A G42A showed a self-cleavage of 0.29.
With A18G A28G G30C the self-cleavage was 0.1.
For A18U U26C A35G C37A C71U, the self-cleavage was 0.14.
A18U A35U U78C gave a self-cleavage of 0.15.
With A18G U54A A57G the self-cleavage was 0.41.
A18U C29U U41C C62U A65G U72G showed a self-cleavage of 0.07.
Variant A18G U25A U31C U43C U51A U54C U60C has a self-cleavage of 0.17.
Variant A18G U26C A35G U72A U78C has a self-cleavage of 0.26.
A18G G52U U54C U69A showed a self-cleavage of 0.54.
For A18G G24A U58C, the self-cleavage was 0.11.
Work on A18U A28U U48C U51G yielded a self-cleavage of 0.18.
A18U U25C A35G A45U showed a self-cleavage of 0.09.
In the case of A18U A75U U78A, the self-cleavage is reported as 0.38.
With A18U A20G U43A G63A the self-cleavage was 0.26.
With A18U A20G G33A A45C the self-cleavage was 0.07.
Variant A18U U26C A28U U58A U60C A64C U67C has a self-cleavage of 0.02.
For A18G U49C C62U U69C, the self-cleavage was 0.38.
With A18G A35G A45G A56G A75G the self-cleavage was 0.8.
In the case of A18G A64G A75U, the self-cleavage is reported as 0.64.
In the case of A18U U25C A45U U49C U76A, the self-cleavage is reported as 0.03.
Variant A18U A35G C38A U48A U54A C71A has a self-cleavage of 0.05.
For A18G C29U U60C U66C, the self-cleavage was 0.14.
A18G A28G A56U U58A gave a self-cleavage of 0.21.
A18G U51A U74A gave a self-cleavage of 1.02.
With A18U U25C U41A the self-cleavage was 0.06.
With A18G C23U U43A U48C U58A A64U G73A the self-cleavage was 0.03.
Variant A18U G22U U58A U78C has a self-cleavage of 0.15.
With A18G U26C U31A A64U U78C the self-cleavage was 0.06.
With A18G U41C U43A A57G U72A the self-cleavage was 0.14.
A18G C29G U41A U67C U76C showed a self-cleavage of 0.09.
A18G A21U U31A G70C U78C showed a self-cleavage of 0.06.
Variant A18U C32A U48C U78A has a self-cleavage of 0.03.
Work on A18G A21G U26C A28G yielded a self-cleavage of 0.33.
Work on A18U A20G A45U yielded a self-cleavage of 0.15.
A18G A57G U58A gave a self-cleavage of 0.2.
In the case of A18U A45U U69C U80C, the self-cleavage is reported as 0.14.
Work on A18G A35G U41C U66C yielded a self-cleavage of 0.37.
Work on A18G C29U U41A C44G U48C yielded a self-cleavage of 0.29.
Variant A18G C37A A56G C62A A65G U67C U69A has a self-cleavage of 0.05.
A18U A28U A35G A45G gave a self-cleavage of 0.7.
Work on A18G U26C A56G yielded a self-cleavage of 0.16.
For A18G G24A C81U, the self-cleavage was 0.31.
A18G A28G G61C A77G gave a self-cleavage of 0.13.
A18U A56G U72A gave a self-cleavage of 0.16.
A18G A45U U72G showed a self-cleavage of 0.16.
Variant A18G U26G A35U has a self-cleavage of 0.27.
Variant A18G A64U A75U has a self-cleavage of 0.35.
A18G G30A A56U showed a self-cleavage of 0.26.
Variant A18G C39A U43C A45G U58C has a self-cleavage of 0.14.
For A18U U26C A35G U51C, the self-cleavage was 0.37.
With A18U U26A U43C A64G A75G the self-cleavage was 0.05.
With A18G A35U U66C A75U the self-cleavage was 0.12.
For A18G U26A U58A U69G U78C, the self-cleavage was 0.12.
For A18G A21U U41G U66G, the self-cleavage was 0.09.
Work on A18G G46A A65G yielded a self-cleavage of 0.09.
A18U A28U A77U gave a self-cleavage of 0.32.
A18G U58C U69A showed a self-cleavage of 0.4.
Work on A18U A20G A56U yielded a self-cleavage of 0.22.
In the case of A18G A28G A75G, the self-cleavage is reported as 0.09.
For A18U G30A U67C U69C, the self-cleavage was 0.13.
For A18G A35G U78C, the self-cleavage was 0.75.
In the case of A18G C39A A47U, the self-cleavage is reported as 0.05.
In the case of A18U U26A C32U, the self-cleavage is reported as 0.15.
A18G A65G U67C U72A gave a self-cleavage of 0.12.
Variant A18U U25A A35U G61A has a self-cleavage of 0.04.
With A18U A20G A35G U41C U51A U54C the self-cleavage was 0.49.
Work on A18G U25C U26A A57G U69C yielded a self-cleavage of 0.09.
A18U A20G U69C gave a self-cleavage of 0.23.
In the case of A18U A21G U41C A64C, the self-cleavage is reported as 0.08.
With A18U U25A A64G the self-cleavage was 0.23.
For A18U U26A U31A A57G U78C, the self-cleavage was 0.06.
Work on A18G A28U U74C yielded a self-cleavage of 0.61.
Variant A18U A20G A56G A64U U80A has a self-cleavage of 0.1.
A18G C23U U43A showed a self-cleavage of 0.17.
A18U A20G U31C C32U U67C U72C gave a self-cleavage of 0.1.
With A18G A35G U72A the self-cleavage was 0.81.
With A18U A20G U26A A28U A64G U69C the self-cleavage was 0.06.
In the case of A18U A28G A35U, the self-cleavage is reported as 0.11.
For A18U A21G A56U, the self-cleavage was 0.11.
Variant A18G A20U C27A U67A has a self-cleavage of 0.09.
In the case of A18U A21G U26C U41C C50G U69G, the self-cleavage is reported as 0.02.
Work on A18G U41G G55A A64G U74A yielded a self-cleavage of 0.08.
For A18U U25C U58C C68G, the self-cleavage was 0.04.
A18U U26A A56U U66C U78G showed a self-cleavage of 0.11.
Work on A18G U25C U31C U66C C71U A77G yielded a self-cleavage of 0.16.
With A18G C39A U69A the self-cleavage was 0.17.
For A18G U25C U43A A47G U67C, the self-cleavage was 0.1.
Work on A18G C37A A45U yielded a self-cleavage of 0.22.
Work on A18G C27A U48A A56G U80A yielded a self-cleavage of 0.04.
A18G A45G U49C G52C U58C gave a self-cleavage of 0.06.
A18G U51A U54C U69A U80A gave a self-cleavage of 0.77.
A18G C37U U67C gave a self-cleavage of 0.3.
Variant A18U U25C A35G U48C U80C has a self-cleavage of 0.44.
A18G U58C A64G gave a self-cleavage of 0.33.
In the case of A18G U54A A56G U66C U69G U74A, the self-cleavage is reported as 0.32.
A18G U51C U54C gave a self-cleavage of 0.17.
Work on A18G U41C U58C A64G A75G U80G yielded a self-cleavage of 0.12.
For A18G G22U A28G U66C, the self-cleavage was 0.1.
In the case of A18U C23U C29G G52C A56G, the self-cleavage is reported as 0.08.
A18G U43C A47G A64G gave a self-cleavage of 0.16.
For A18G A57G A65G, the self-cleavage was 0.12.
Work on A18G A45U U49C A65G yielded a self-cleavage of 0.15.
For A18G U26C C29A C40A, the self-cleavage was 0.33.
In the case of A18G G52U U60A C68U G73C A75G, the self-cleavage is reported as 0.28.
With A18G C40U G63U U80A the self-cleavage was 0.47.
